{"source": "paper PMC4336329", "about": "(PLoS ONE, 2015)", "note": "Out of some 310,000 compounds screened, about 2,200 (0.71%) showed an effect of 50% or more. The effect is printed as a negative number. This is one part of the list.", "data": [{"biological_target": "human ether-à-go-go-related gene (hERG) potassium channel (human, UniProt Q12809)", "sequence (Q12809 whole entry, looked up)": "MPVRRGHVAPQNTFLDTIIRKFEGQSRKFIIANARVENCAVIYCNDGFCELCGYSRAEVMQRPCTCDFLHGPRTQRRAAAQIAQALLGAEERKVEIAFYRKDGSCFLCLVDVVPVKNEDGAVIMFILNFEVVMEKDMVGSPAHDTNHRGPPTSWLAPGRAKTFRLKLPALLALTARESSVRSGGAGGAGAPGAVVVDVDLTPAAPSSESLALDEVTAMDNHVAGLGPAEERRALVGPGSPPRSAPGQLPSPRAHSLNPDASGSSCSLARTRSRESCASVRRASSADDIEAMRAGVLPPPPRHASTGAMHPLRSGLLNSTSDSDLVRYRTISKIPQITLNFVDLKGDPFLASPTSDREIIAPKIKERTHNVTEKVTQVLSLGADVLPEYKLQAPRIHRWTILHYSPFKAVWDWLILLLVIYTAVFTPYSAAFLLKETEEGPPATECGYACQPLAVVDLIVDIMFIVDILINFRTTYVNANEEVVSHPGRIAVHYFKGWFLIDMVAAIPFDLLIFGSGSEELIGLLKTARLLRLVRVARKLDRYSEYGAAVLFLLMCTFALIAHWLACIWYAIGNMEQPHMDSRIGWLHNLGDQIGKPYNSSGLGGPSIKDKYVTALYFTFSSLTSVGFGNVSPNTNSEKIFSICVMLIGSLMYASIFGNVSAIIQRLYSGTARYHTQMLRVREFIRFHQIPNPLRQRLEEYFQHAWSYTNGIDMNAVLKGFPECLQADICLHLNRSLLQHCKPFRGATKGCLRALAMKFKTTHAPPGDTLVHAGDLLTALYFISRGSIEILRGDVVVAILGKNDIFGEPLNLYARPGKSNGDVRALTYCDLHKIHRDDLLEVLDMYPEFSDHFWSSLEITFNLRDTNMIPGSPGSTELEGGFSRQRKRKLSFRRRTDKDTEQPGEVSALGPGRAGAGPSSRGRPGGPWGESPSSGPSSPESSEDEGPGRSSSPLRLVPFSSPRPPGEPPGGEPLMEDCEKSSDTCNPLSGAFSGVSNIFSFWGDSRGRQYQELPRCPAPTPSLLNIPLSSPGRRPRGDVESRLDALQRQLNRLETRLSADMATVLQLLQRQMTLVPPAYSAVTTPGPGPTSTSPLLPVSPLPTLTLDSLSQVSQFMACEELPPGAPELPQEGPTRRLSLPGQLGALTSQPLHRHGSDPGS", "test": "primary screen, population patch clamp on CHO cells stably expressing hERG", "units": {"hERG current change (%, negative = inhibition) at 1uM": "%"}, "values": [{"smiles": "CN(CCc1nnc(N)s1)[N+](=O)[O-]", "hERG current change (%, negative = inhibition) at 1uM": 2.96}, {"smiles": "NC(=O)CC(NC(=O)c1ccc(Br)cc1)c1ccc(N2CCCCCCC2)c([N+](=O)[O-])c1", "note": "(centres unmarked)", "hERG current change (%, negative = inhibition) at 1uM": 7.7}, {"smiles": "COc1ccc(-c2cc(C)no2)cc1S(=O)(=O)NCCCN(C)Cc1ccccc1", "hERG current change (%, negative = inhibition) at 1uM": -0.572}, {"smiles": "C(=C\\c1nc(N2CCCCCC2)c2ccccc2n1)/c1ccccc1", "hERG current change (%, negative = inhibition) at 1uM": 7.65}, {"smiles": "Cn1c(-c2ccccc2)cc2ccccc21", "hERG current change (%, negative = inhibition) at 1uM": 10}, {"smiles": "Cc1cc(/C=C\\c2nc(O)c([N+](=O)[O-])c(=O)[nH]2)c(C)n1-c1ccccc1", "hERG current change (%, negative = inhibition) at 1uM": 4.4}, {"smiles": "O=C(c1ccsc1)N1CCCC(N2CCN(c3cccc(Cl)c3)CC2)C1", "note": "(centres unmarked)", "hERG current change (%, negative = inhibition) at 1uM": 0.466}, {"smiles": "O=c1c2c3c(sc2nc2n1CCCCC2)CCCCC3", "hERG current change (%, negative = inhibition) at 1uM": 2.1}, {"smiles": "CCCNC(=O)CCc1c(C)nc2c(c(C)nn2-c2ccc(C)cc2)c1C", "hERG current change (%, negative = inhibition) at 1uM": 9.58}, {"smiles": "COc1ccc(/C=C/c2nc(N)nc(-c3ccccc3O)n2)cc1", "hERG current change (%, negative = inhibition) at 1uM": 6.02}, {"smiles": "COc1ccc(NC(=O)CCOc2ccccc2)cc1", "hERG current change (%, negative = inhibition) at 1uM": 10.3}, {"smiles": "Cc1cccc(OCC(=O)Nc2ccc(N3CCN(C(=O)c4ccccc4)CC3)cc2)c1C", "hERG current change (%, negative = inhibition) at 1uM": 12.8}, {"smiles": "Cc1ccc(C)c(-n2c(SCC(N)=O)nnc2-c2ccccn2)c1", "hERG current change (%, negative = inhibition) at 1uM": 7.69}, {"smiles": "O=C1NC(=S)S/C1=C\\c1coc2ccccc2c1=O", "hERG current change (%, negative = inhibition) at 1uM": 15}, {"smiles": "CCN1C(=NCCc2cccnc2)N[C@@H](c2ccccc2)[C@H](C(=O)OC)[C@H]1C", "hERG current change (%, negative = inhibition) at 1uM": 7.53}, {"smiles": "O=C(O)CSc1nc2ccccc2nc1Cc1ccccc1F", "hERG current change (%, negative = inhibition) at 1uM": 13.2}, {"smiles": "CC1(C)N=C(N)N=C(N)N1c1cccc(CN)c1.CCS(=O)(=O)O", "hERG current change (%, negative = inhibition) at 1uM": 17.3}, {"smiles": "COc1cccc(OCc2cc(/C=N/n3cncn3)ccc2OC)c1", "hERG current change (%, negative = inhibition) at 1uM": 8.8}, {"smiles": "CC(C)(C)c1ccc(C(=O)N2CCN(S(=O)(=O)c3ccc(Br)s3)CC2)cc1", "hERG current change (%, negative = inhibition) at 1uM": 10.7}, {"smiles": "O=C(Nc1cccc(OCC(=O)N2CCOCC2)c1)c1cccc([N+](=O)[O-])c1", "hERG current change (%, negative = inhibition) at 1uM": 21.6}, {"smiles": "COc1ccc2c(c1)c1nc3ccccc3nc1n2Cc1ccc(OC)c(OC)c1", "hERG current change (%, negative = inhibition) at 1uM": 15.1}, {"smiles": "COc1ccc(NC(=O)c2cccc(NC3=NC4CS(=O)(=O)CC4S3)c2)cc1Cl", "note": "(centres unmarked)", "hERG current change (%, negative = inhibition) at 1uM": 11.1}, {"smiles": "O=C(c1ccc(Br)o1)N1CCN(c2ncccn2)CC1", "hERG current change (%, negative = inhibition) at 1uM": 7.62}, {"smiles": "COc1ccc(-c2n[nH]c(=S)n2-c2ccccc2C)cc1OC", "hERG current change (%, negative = inhibition) at 1uM": 12.1}, {"smiles": "COc1ccc(CNC(=O)c2cc(=O)c3c(C)cc(C)cc3o2)cc1", "hERG current change (%, negative = inhibition) at 1uM": 3.27}, {"smiles": "O=C(N/N=C/c1ccc(N2CCOCC2)o1)c1cccc([N+](=O)[O-])c1", "hERG current change (%, negative = inhibition) at 1uM": 0.36}, {"smiles": "CCOc1ccc(-c2c(C(=O)N/N=C(\\C)c3cccs3)nnn2-c2nonc2N)cc1", "hERG current change (%, negative = inhibition) at 1uM": 11.2}, {"smiles": "CC(C)NC(=O)N1CC(c2ccccc2)C(c2ccc(Cl)cc2)=N1", "note": "(centres unmarked)", "hERG current change (%, negative = inhibition) at 1uM": 9.88}, {"smiles": "CCOc1ccc(C(CC(=O)O)NC(=O)c2ccco2)cc1", "note": "(centres unmarked)", "hERG current change (%, negative = inhibition) at 1uM": 3.82}, {"smiles": "O=[N+]([O-])c1ccc(S(=O)(=O)NCCCc2ccccc2)cc1", "hERG current change (%, negative = inhibition) at 1uM": -3.64}, {"smiles": "CCCCCCSc1ccc([C@H]2N[C@@](CC(C)C)(C(=O)OC)[C@H]3C(=O)N(C)C(=O)[C@@H]23)cc1.O=C(O)C(F)(F)F", "hERG current change (%, negative = inhibition) at 1uM": 12.5}, {"smiles": "Cc1cccc(NC(=O)NNC(=O)c2ccc3ccccc3c2O)c1", "hERG current change (%, negative = inhibition) at 1uM": 15.9}, {"smiles": "Fc1cccc(Cl)c1CNc1ccc(N2CCCC2)cc1", "hERG current change (%, negative = inhibition) at 1uM": 20}, {"smiles": "O=C(NCCN1CCCCC1)c1cc2ccccc2[nH]1", "hERG current change (%, negative = inhibition) at 1uM": -8.51}, {"smiles": "COc1ccc(N2CCN(C(=O)c3ccc(OCC4CCCO4)cc3)CC2)cc1", "note": "(centres unmarked)", "hERG current change (%, negative = inhibition) at 1uM": 5.38}, {"smiles": "CC(C)(C)OCC1CO1", "note": "(centres unmarked)", "hERG current change (%, negative = inhibition) at 1uM": 12.3}, {"smiles": "CCCCCCCCCCCCN1C/C(=C\\C(=O)OCC)c2ccccc2S1(=O)=O", "hERG current change (%, negative = inhibition) at 1uM": 10.9}, {"smiles": "CC12CCC(C(=O)N(CSC(=S)N/N=C\\c3ccccc3)C1=O)C2(C)C", "note": "(centres unmarked)", "hERG current change (%, negative = inhibition) at 1uM": 11}, {"smiles": "O=C(O)CCNS(=O)(=O)c1cccc(Br)c1", "hERG current change (%, negative = inhibition) at 1uM": 8.05}, {"smiles": "COc1cc(/C=N/Nc2ccccn2)cc(OC)c1O", "hERG current change (%, negative = inhibition) at 1uM": 6.2}, {"smiles": "COc1ccccc1NC(=O)c1sc2ncn(Cc3ccc(C)cc3)c(=O)c2c1C", "hERG current change (%, negative = inhibition) at 1uM": 10.5}, {"smiles": "CCNC(=S)NNC(=O)c1cc(-c2ccc(OC)cc2)nc2ccccc12", "hERG current change (%, negative = inhibition) at 1uM": -20.9}, {"smiles": "Cc1ccc(-n2cc(CNCC3CC(=O)N(C4CC4)C3)c(-c3cccc(C)c3)n2)cc1", "note": "(centres unmarked)", "hERG current change (%, negative = inhibition) at 1uM": -31}, {"smiles": "COc1ccc(C2Nc3ccccc3NC3=C2C(=O)CC(C)(C)C3)cc1", "note": "(centres unmarked)", "hERG current change (%, negative = inhibition) at 1uM": 13.9}]}]}
